Measured values from PMC9911399, “Two distinct binding modes provide the RNA-binding protein RbFox with extraordinary sequence specificity”.
Where a chain is given by its changes, count along the chain named. The list shows a part of the results.

T1: RBFOX1 RRM (Homo sapiens, UniProt Q9NWB1 109-208)
T1 sequence: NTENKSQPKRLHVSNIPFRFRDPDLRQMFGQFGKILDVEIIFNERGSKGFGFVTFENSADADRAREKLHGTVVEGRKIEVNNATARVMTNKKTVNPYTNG

B1: CUACGGG (DNA:RNA)
RNA: GGGAGACCGGAAUUCAGAUUGUCCCUACGGGUUAAAUCCCGUCGUAGCCACCA
DNA 1: CAATCTGAATTCCGGTCTCCC
DNA 2: TGGTGGCTACGACGGGATT
B2: CCUCAUG (DNA:RNA)
RNA: B1 RNA with U26C, A27U, G29A, G30U
DNA 1: CAATCTGAATTCCGGTCTCCC
DNA 2: TGGTGGCTACGACGGGATT
B3: GUGAUUC (DNA:RNA)
RNA: B1 RNA with C25G, A27G, C28A, G29U, G30U, G31C
DNA 1: CAATCTGAATTCCGGTCTCCC
DNA 2: TGGTGGCTACGACGGGATT
B4: GGGCAGG (DNA:RNA)
RNA: B1 RNA with C25G, U26G, A27G, G29A
DNA 1: CAATCTGAATTCCGGTCTCCC
DNA 2: TGGTGGCTACGACGGGATT
B5: CAGUUAU (DNA:RNA)
RNA: B1 RNA with U26A, A27G, C28U, G29U, G30A, G31U
DNA 1: CAATCTGAATTCCGGTCTCCC
DNA 2: TGGTGGCTACGACGGGATT
B6: AGCCGGA (DNA:RNA)
RNA: B1 RNA with C25A, U26G, A27C, G31A
DNA 1: CAATCTGAATTCCGGTCTCCC
DNA 2: TGGTGGCTACGACGGGATT
B7: AGCAGGC (DNA:RNA)
RNA: B1 RNA with C25A, U26G, A27C, C28A, G31C
DNA 1: CAATCTGAATTCCGGTCTCCC
DNA 2: TGGTGGCTACGACGGGATT
B8: CAGUAUU (DNA:RNA)
RNA: B1 RNA with U26A, A27G, C28U, G29A, G30U, G31U
DNA 1: CAATCTGAATTCCGGTCTCCC
DNA 2: TGGTGGCTACGACGGGATT
B9: GUGUAGC (DNA:RNA)
RNA: B1 RNA with C25G, A27G, C28U, G29A, G31C
DNA 1: CAATCTGAATTCCGGTCTCCC
DNA 2: TGGTGGCTACGACGGGATT
B10: UUUUUGG (DNA:RNA)
RNA: B1 RNA with C25U, A27U, C28U, G29U
DNA 1: CAATCTGAATTCCGGTCTCCC
DNA 2: TGGTGGCTACGACGGGATT
B11: ACGAAGA (DNA:RNA)
RNA: B1 RNA with C25A, U26C, A27G, C28A, G29A, G31A
DNA 1: CAATCTGAATTCCGGTCTCCC
DNA 2: TGGTGGCTACGACGGGATT
B12: GCCGUUA (DNA:RNA)
RNA: GGGAGACCGGAAUUCAGAUUGUCCGCCGUUAUUAAAUCCCGUCGUAGCCACCA
DNA 1: CAATCTGAATTCCGGTCTCCC
DNA 2: TGGTGGCTACGACGGGATT
B13: UCAAUAG (DNA:RNA)
RNA: B1 RNA with C25U, U26C, C28A, G29U, G30A
DNA 1: CAATCTGAATTCCGGTCTCCC
DNA 2: TGGTGGCTACGACGGGATT
B14: ACGUUGA (DNA:RNA)
RNA: B12 RNA with G25A, C27G, G28U, U30G
DNA 1: CAATCTGAATTCCGGTCTCCC
DNA 2: TGGTGGCTACGACGGGATT
B15: UCAUCGG (DNA:RNA)
RNA: B1 RNA with C25U, U26C, C28U, G29C
DNA 1: CAATCTGAATTCCGGTCTCCC
DNA 2: TGGTGGCTACGACGGGATT
B16: GUGCGUA (DNA:RNA)
RNA: B1 RNA with C25G, A27G, G30U, G31A
DNA 1: CAATCTGAATTCCGGTCTCCC
DNA 2: TGGTGGCTACGACGGGATT
B17: CGGGUCA (DNA:RNA)
RNA: B12 RNA with G25C, C26G, C27G, U30C
DNA 1: CAATCTGAATTCCGGTCTCCC
DNA 2: TGGTGGCTACGACGGGATT
B18: CUGGCAG (DNA:RNA)
RNA: B1 RNA with A27G, C28G, G29C, G30A
DNA 1: CAATCTGAATTCCGGTCTCCC
DNA 2: TGGTGGCTACGACGGGATT
B19: CAUGCCC (DNA:RNA)
RNA: B1 RNA with U26A, A27U, C28G, G29C, G30C, G31C
DNA 1: CAATCTGAATTCCGGTCTCCC
DNA 2: TGGTGGCTACGACGGGATT
B20: CGAAGAU (DNA:RNA)
RNA: B1 RNA with U26G, C28A, G30A, G31U
DNA 1: CAATCTGAATTCCGGTCTCCC
DNA 2: TGGTGGCTACGACGGGATT
B21: AUUACGG (DNA:RNA)
RNA: B1 RNA with C25A, A27U, C28A, G29C
DNA 1: CAATCTGAATTCCGGTCTCCC
DNA 2: TGGTGGCTACGACGGGATT
B22: UUACGGA (DNA:RNA)
RNA: B1 RNA with C25U, G31A
DNA 1: CAATCTGAATTCCGGTCTCCC
DNA 2: TGGTGGCTACGACGGGATT
B23: GAGCGCA (DNA:RNA)
RNA: B1 RNA with C25G, U26A, A27G, G30C, G31A
DNA 1: CAATCTGAATTCCGGTCTCCC
DNA 2: TGGTGGCTACGACGGGATT
B24: AGCUCAC (DNA:RNA)
RNA: B12 RNA with G25A, C26G, G28U, U29C, U30A, A31C
DNA 1: CAATCTGAATTCCGGTCTCCC
DNA 2: TGGTGGCTACGACGGGATT
B25: CGACGAG (DNA:RNA)
RNA: B1 RNA with U26G, G30A
DNA 1: CAATCTGAATTCCGGTCTCCC
DNA 2: TGGTGGCTACGACGGGATT
B26: GAGCUCC (DNA:RNA)
RNA: B12 RNA with C26A, C27G, G28C, U30C, A31C
DNA 1: CAATCTGAATTCCGGTCTCCC
DNA 2: TGGTGGCTACGACGGGATT
B27: UCUCCCG (DNA:RNA)
RNA: B1 RNA with C25U, U26C, A27U, G29C, G30C
DNA 1: CAATCTGAATTCCGGTCTCCC
DNA 2: TGGTGGCTACGACGGGATT
B28: CUACCUG (DNA:RNA)
RNA: B1 RNA with G29C, G30U
DNA 1: CAATCTGAATTCCGGTCTCCC
DNA 2: TGGTGGCTACGACGGGATT
B29: UGGUAAC (DNA:RNA)
RNA: GGGAGACCGGAAUUCAGAUUGUCCUGGUAACUUAAAUCCCGUCGUAGCCACCA
DNA 1: CAATCTGAATTCCGGTCTCCC
DNA 2: TGGTGGCTACGACGGGATT
B30: UCUCUGG (DNA:RNA)
RNA: B1 RNA with C25U, U26C, A27U, G29U
DNA 1: CAATCTGAATTCCGGTCTCCC
DNA 2: TGGTGGCTACGACGGGATT
B31: GCCCAAC (DNA:RNA)
RNA: B12 RNA with G28C, U29A, U30A, A31C
DNA 1: CAATCTGAATTCCGGTCTCCC
DNA 2: TGGTGGCTACGACGGGATT

biological target: T1, RBFOX1 RRM; assay: EMSA; HiTS-Eq, 1 nM pool, 10 min; buffer printed only for the single-RNA assays: 10 mM Tris pH 7.5, 150 mM NaCl, 3.4 mM EDTA, 0.001% NP-40, 30 C; settings: tags: His6 N-terminal (pET28a); label: 5' 32P
In short: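 Relative association constants, normalised to the cognate motif, were derived by comparing read counts of each RNA species with those of the control reaction. The RNA sequenced was the free fraction, separated by 8% native PAGE after a 10 min equilibration in 50 µL of 1 nM 5′-radiolabelled RNA (7 randomized nucleotides) with increasing concentrations of purified wild-type or mutant RbFox RRM.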

In order of rising binding signal:
1. B1  0.00151 KA relative to UGCAUGU
2. B22  0.00194 KA relative to UGCAUGU
3. B5  0.00331 KA relative to UGCAUGU
4. B6  0.00377 KA relative to UGCAUGU
5. B8  0.00378 KA relative to UGCAUGU
6. B24  0.00457 KA relative to UGCAUGU
7. B19  0.00556 KA relative to UGCAUGU
8. B13  0.0056 KA relative to UGCAUGU
9. B21  0.00648 KA relative to UGCAUGU
10. B31  0.00668 KA relative to UGCAUGU
11. B20  0.00689 KA relative to UGCAUGU
12. B11  0.00796 KA relative to UGCAUGU
13. B15  0.00798 KA relative to UGCAUGU
14. B28  0.00798 KA relative to UGCAUGU
15. B12  0.0086 KA relative to UGCAUGU
16. B27  0.00933 KA relative to UGCAUGU
17. B7  0.0106 KA relative to UGCAUGU
18. B9  0.0115 KA relative to UGCAUGU
19. B14  0.0118 KA relative to UGCAUGU
20. B16  0.0121 KA relative to UGCAUGU
21. B2  0.013 KA relative to UGCAUGU
22. B29  0.0137 KA relative to UGCAUGU
23. B3  0.0148 KA relative to UGCAUGU
24. B25  0.0158 KA relative to UGCAUGU
25. B10  0.016 KA relative to UGCAUGU
26. B30  0.016 KA relative to UGCAUGU
27. B4  0.0181 KA relative to UGCAUGU
28. B23  0.0188 KA relative to UGCAUGU
29. B26  0.0192 KA relative to UGCAUGU
30. B18  0.0227 KA relative to UGCAUGU
31. B17  0.0232 KA relative to UGCAUGU
